# From PubChem BioAssay AID504832 (National Center for Advancing Translational Sciences (NCATS), 2011)
# The whole screen tested about 310,000 compounds, of which about 18,000 (5.8%) were called active. This list was built around the results that the source calls inconclusive (neither active nor inactive); the mix of calls is not that of the screen. Calls follow the shape of the dose curve; as a rule, active = well fitted inhibition curve with a large enough effect; inconclusive = small, poorly fitted or top-dose-only effect, or another doubt; inactive = no such curve, though single readings can be large or run the other way. Potencies of inconclusive entries are left out as doubtful fits.
# Assay: Primary qHTS for delayed death inhibitors of the malarial parasite plastid, 48 hour incubation
# Details: P. falciparum luciferase growth in erythrocytes; series mostly up to 28.7 µM
# How it was run: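 Luminescence readout; reporter = integrated firefly luciferase in P. falciparum. RBC culture at 2% hematocrit, 0.1% parasitemia final, 37 C/5% CO2; decreased signal taken as growth inhibition.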
# Potency is read from the fitted curve at half-maximal effect; tags tell the direction and shape of the fitted curve.
row,SMILES,Potency
1,Cn1cnnc1SCC(=O)Nc1ccc2c(c1)CCC2,inactive
2,Cc1ccc(C)c(NS(=O)(=O)c2cc3c4c(c2)CC(=O)N4CCC3)c1,active: 10.4 µM
3,Cc1ccc2c(c1)N(CC(=O)NC1CCCCCC1)C(=O)c1cccnc1O2,"inconclusive [inhibitor, single point]"
4,CCNc1nc(Oc2ccc(Cl)cc2Cl)cc(C(F)(F)F)n1,"inconclusive [inhibitor, single point]"
5,O=C(c1ccc(Cl)cc1)C1CCCN(Cc2ccc3ncccc3c2)C1 (centres undefined),"inconclusive [inhibitor, single point]"
6,O=C(CN1CCCCCC1)Nc1ccccc1Oc1ccccc1,inactive
7,CC1CCCC(C(=O)OCc2ccccc2)N1 (centres undefined),"inconclusive [inhibitor, single point]"
8,Cc1ccc(SCCNC(=O)c2ccc(C)c(S(=O)(=O)Nc3ccccc3C)c2)cc1,"inconclusive [inhibitor, single point]"
9,COc1ccc(OC)c(NC(=S)N2c3ccccc3CC2C)c1 (centres undefined),"inconclusive [inhibitor, single point]"
10,CCOC(=O)C1(CC2CCCCO2)CCN(S(=O)(=O)c2c(C)nn(C)c2C)CC1 (centres undefined),inactive
11,O=C(CCNS(=O)(=O)c1ccccc1)N1CCCCCCC1,inactive
12,CSc1nc2nc3c(cc2c(=O)n1-c1ccccc1C)CCCC3,"inconclusive [inhibitor, partial curve]"
13,COc1ccc(-n2cnc3cc(NCc4cccs4)ccc32)cc1,"inconclusive [inhibitor, single point]"
14,COc1ccc(-c2nc3ccccc3o2)cc1OC,inactive
15,COc1ccc(CSC2=NCCN2)cc1Br,"inconclusive [inhibitor, single point]"
16,Cc1c(OCC(=O)N2CCN(c3ccccc3)CC2)ccc2c3c(c(=O)oc12)CCCC3,"inconclusive [inhibitor, partial curve]"
17,COCCCNC(=O)Cc1ccc(-n2c(C)nc3cccnc32)cc1,inactive
18,O=Cc1coc2ccc3ccccc3c2c1=O,"inconclusive [inhibitor, full curve, poor fit]"
19,Cc1noc(C)c1COc1ccc(C(=O)OCC(=O)N2CC(=O)Nc3ccccc32)cc1,active: 4.65 µM
20,Cc1nc2ccccc2n1C1CCN(CC(=O)NCc2ccc(F)cc2)CC1,"inconclusive [inhibitor, partial curve]"
21,CC(C)C(NC(=O)c1ccc(C(C)(C)C)cc1)C(=O)Nc1cccc(S(N)(=O)=O)c1 (centres undefined),"inconclusive [inhibitor, single point]"
22,Cc1ccccc1C(=O)N1CCC(C(=O)Oc2ccc(C#N)cc2)CC1,inactive

row,SMILES,Potency
1,O=C(CSc1nnc(-c2cccnc2)n1Cc1ccco1)c1ccc(Br)cc1,"inconclusive [inhibitor, single point]"
2,CCCCn1c(N)c(N(CCOC)C(=O)c2cccc(S(=O)(=O)N(C)c3ccc(C)cc3)c2)c(=O)[nH]c1=O,active: 6.57 µM
3,O=C(N/N=C/c1ccc([N+](=O)[O-])o1)c1sc2ccccc2c1Cl,"inconclusive [inhibitor, full curve]"
4,COc1ccc(NC(=O)C2CCN(C(=O)[C@@H]3Cc4ccccc4CN3)CC2)cc1,inactive
5,O=[N+]([O-])c1cccn2cc(-c3ccc(Br)cc3)nc12,"inconclusive [inhibitor, partial curve, poor fit]"
6,COc1ccccc1CNCC(=O)Nc1ccc(C(F)(F)F)cc1,inactive
7,Cc1nnc(SCC(=O)c2c(N)n(Cc3ccccc3)c(=O)n(C)c2=O)n1C,"inconclusive [inhibitor, partial curve, poor fit]"
8,NC(=O)C1(N2CCCCC2)CCN(C(=O)c2ccc(C#Cc3ccccc3)o2)CC1,"inconclusive [inhibitor, single point]"
9,COc1cc(C2OC(c3cc(OC)c(OC)c(OC)c3)C(C)C2C)cc(OC)c1OC (centres undefined),"inconclusive [inhibitor, single point]"
10,CSc1ccc(CN(C)CC(=O)NC(=O)NCCC2=CCCCC2)cc1,"inconclusive [inhibitor, single point]"
11,Cc1cc2c(=O)n(CC(=O)NCC(=O)Nc3ccc(C(C)C)cc3)cnc2s1,inactive
12,COc1ccc(CCNC(=O)CSc2nc3[nH]c(=O)cc(O)c3s2)cc1,"inconclusive [inhibitor, partial curve, poor fit]"
13,CN(C)c1cccc(C(=O)OCC(=O)Nc2ccccc2Sc2ccccc2)c1,"inconclusive [inhibitor, single point]"
14,CC1CN(C(=O)COC(=O)c2nn(-c3ccccc3)c(=O)c3ccccc23)CC(C)O1 (centres undefined),inactive
15,CC(=O)c1cc(C(c2csc(C(C)=O)c2)c2csc(C(C)=O)c2)cs1,"inconclusive [inhibitor, single point]"
16,O=C(Nc1ccc(C(=O)O)cc1)/C(=C\c1ccc([N+](=O)[O-])cc1)NC(=O)c1ccc(Br)cc1,inactive
17,Cc1ccc(S(=O)(=O)NCCC(=O)NCC(c2cccs2)N2CCOCC2)cc1 (centres undefined),inactive
18,COc1ccc(-c2nnn(CC(=O)N(C3CCCC3)C(C)C(=O)NC3CCCC3)n2)cc1OC (centres undefined),"inconclusive [inhibitor, single point]"
19,COc1ccccc1/C=C/C(=O)c1c2c(c(C)[nH]c1=O)CCCC2,"inconclusive [inhibitor, partial curve, poor fit]"
20,Cn1c(=O)c2cc(S(=O)(=O)NCCC(=O)NC3CCCCCC3)ccc2n(C)c1=O,"inconclusive [inhibitor, partial curve, poor fit]"
21,O=C(O)c1ccc(NC(=S)NC(=O)c2ccc(-c3ccc(Br)cc3)o2)cc1,"inconclusive [inhibitor, single point]"
22,COc1ccccc1NC(=O)C1=C(C)Nc2nc(-c3cccs3)nn2C1c1cccc(O)c1 (centres undefined),"inconclusive [inhibitor, partial curve, poor fit]"
